Assay results published in PubChem BioAssay AID504832 (National Center for Advancing Translational Sciences (NCATS), 2011).
Values joined by “and” are separate entries in the source; they are usually repeats but may differ in a detail not shown here. Equal values may be shown once. The whole screen tested about 310,000 compounds, of which about 18,000 (5.8%) were called active. Inconclusive results, whose numbers are uncertain, are shown with a selection of clear calls. The call rests on the fitted dose curve; in most records, active means well fitted inhibition curve with a large enough effect; inconclusive means small, poorly fitted or top-dose-only effect, or another doubt; inactive means no such curve, though single readings can be large or run the other way. No potency is given beside an inconclusive call; the fits are too rough.

Assay: Primary qHTS for delayed death inhibitors of the malarial parasite plastid, 48 hour incubation
Conditions: P. falciparum luciferase growth in erythrocytes; series mostly up to 28.7 µM; activity change, negative = inhibition: at the top concentration
Procedure, shortened: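 Luciferase-expressing P. falciparum in infected erythrocytes (2% hematocrit, 0.1% parasitemia final) in RPMI 1640/0.5% Albumax were exposed to compound for 48 hours at 37 C, 5% CO2; growth read as luminescence.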
On the % scale 0 is the no-effect control and ±100 the full control effect; potency means the concentration at half of the fitted maximal effect; tags describe the fitted curve by direction and shape.

For `O=C1c2cccnc2C(Nc2ccc(S(=O)(=O)N3CCCCC3)cc2)N1Cc1ccccc1` (stereo not drawn), which Potency is on record?
The Potency was inconclusive [inhibitor, partial curve, poor fit].

For `COc1cccc(COC(=O)CCNC(=O)c2ccc(Cl)cc2)c1OC`, which “activity change, negative = inhibition” value is on record?
The value was inactive: 4.19%.

For `O=C(CCCC(=O)N1CCN(c2ccccc2F)CC1)N1CCN(c2ccccc2F)CC1`, which Potency is on record?
The Potency was inconclusive [inhibitor, full curve, poor fit].

For `COc1ccc(S(=O)(=O)CCC(=O)Nc2ccc(OC)cc2OC)cc1`, which “activity change, negative = inhibition” value is on record?
The value was inactive: -9.07%.

For `O=C(c1ccc(S(=O)(=O)c2cccc(Cl)c2)c([N+](=O)[O-])c1)N1CCN(c2ccccn2)CC1`, which Potency is on record?
The Potency was inconclusive [inhibitor, partial curve].

Which Potency does the source give for `C(=N\N=C\c1ccncc1)/c1ccncc1` here?
The Potency was inconclusive [inhibitor, partial curve, poor fit].

With `COc1ccc(C(=O)/C=C/C(=O)N(Cc2ccccc2OC)C(C(=O)NC2CCCCC2)c2ccncc2)c(O)c1` (stereo not drawn) as the compound, how does the Potency read?
The Potency was active: 11.7 µM.

With `CCOc1cc(-c2nccc3cc(OC)c(OC)cc23)cc(OCC)c1OCC` as the compound, how does the Potency read?
The Potency was active: 12 µM and active: 10.4 µM.

With `Cc1ccc2c(Br)cc(Br)c(O)c2n1` as the compound, how does the Potency read?
The Potency was active: 12 µM.

Which Potency does the source give for `N#CC1=C(N)Oc2cc3ccccc3cc2C1c1cccnc1` (stereo not drawn) here?
The Potency was inconclusive [inhibitor, partial curve, poor fit].

Which “activity change, negative = inhibition” value does the source give for `Cc1ccc(CCNC(=O)C2CC(c3cccc(F)c3)=NO2)cc1` (stereo not drawn) here?
Its value is inactive: 68.8%.

Which Potency does the source give for `O=C(CN(Cc1ccco1)C(=O)CCC(=O)Nc1nccs1)NCc1ccccc1` here?
The Potency was inconclusive [inhibitor, partial curve, poor fit].

For `Cc1ccc(NC(=O)N(Cc2cccnc2)Cc2ccco2)cc1C`, which Potency is on record?
Its Potency is inconclusive [inhibitor, full curve, poor fit].

For `O=C(CSc1nnc(NC(=O)c2ccccc2Cl)s1)Nc1ccc2c(c1)oc1ccccc12`, which “activity change, negative = inhibition” value is on record?
Its value is inactive: 108%.

Which Potency does the source give for `Cc1c(C(=O)NCc2ccccc2CN2CCCC2)oc2c(F)cccc12` here?
The Potency was active: 13.1 µM.

Which Potency does the source give for `O=S(=O)(Nc1ccc(N2CCCCC2)cc1)c1ccccc1F` here?
Its Potency is inconclusive [inhibitor, single point].

With `COc1ccc(N2CCN(CCCNS(=O)(=O)c3c(C)noc3/C=C/N(C)C)CC2)cc1` as the compound, how does the Potency read?
The Potency was active: 2.94 µM.

For `CC(C)c1nc(SCC(=O)c2ccc(F)cc2)c2ccccc2n1`, which Potency is on record?
Its Potency is inconclusive [inhibitor, single point].

Which “activity change, negative = inhibition” value does the source give for `CCOC(=O)C1=C(c2ccccc2)NC(=S)NC1c1ccc(Cl)cc1` (stereo not drawn) here?
The value was inactive: -22.2%.

For `CCCn1c(CC)nc([N+](=O)[O-])c1S(=O)(=O)c1ccccc1`, which Potency is on record?
Its Potency is active: 10.4 µM.

With `COc1ccc(NC(=O)CCCn2cnc3ccccc3c2=O)cc1` as the compound, how does the activity change, negative = inhibition read?
Its activity change, negative = inhibition is inactive: -4.07% [at 0.00184 µM].

For `CC1CC(C)CN(S(=O)(=O)c2ccc3c(c2)CC(C)N3C(=O)C2CC2)C1` (stereo not drawn), which Potency is on record?
Its Potency is inconclusive [inhibitor, single point].

With `COc1ccc(C(=O)Nc2c(Cl)cc(Cl)cc2C(=O)N2CCOCC2)cc1` as the compound, how does the “activity change, negative = inhibition” value read?
Its value is inactive: 13.8%.

With `CN(CC(=O)Nc1cc(S(=O)(=O)N2CCCCCC2)ccc1Cl)Cc1ccc2c(c1)OCO2` as the compound, how does the Potency read?
Its Potency is active: 11.7 µM.

Which Potency does the source give for `CC1=C(C(=O)Nc2ccc(C)cc2C)C(c2cccc([N+](=O)[O-])c2)n2nc(C(=O)OC(C)C)nc2N1` (stereo not drawn) here?
The Potency was inconclusive [inhibitor, full curve, poor fit].

For `Nn1c(SCC(=O)Nc2ccc(S(N)(=O)=O)cc2)nnc1C(F)(F)F`, which “activity change, negative = inhibition” value is on record?
The value was inactive: -11.1%.

Which “activity change, negative = inhibition” value does the source give for `CC(CC=O)CCCC(C)(C)O` (stereo not drawn) here?
Its value is inactive: 0.581%.

Which “activity change, negative = inhibition” value does the source give for `O=C(c1ccccc1)N1CCN(Cc2ccccc2C(F)(F)F)CC1` here?
The value was inactive: -14%.

With `Cc1ccc(C(=O)NCc2cccnc2)cc1S(=O)(=O)N1CCCCCC1` as the compound, how does the Potency read?
The Potency was inconclusive [inhibitor, single point].

With `Cc1cccc(C2NC(c3cccc(C)c3)C(C)C(=O)C2C)c1` (stereo not drawn) as the compound, how does the Potency read?
The Potency was inconclusive [inhibitor, single point].

For `CCCCCCCCNC(=O)/C(C#N)=C/c1ccccc1[N+](=O)[O-]`, which Potency is on record?
Its Potency is active: 13.1 µM.

Which “activity change, negative = inhibition” value does the source give for `CN(CCC#N)C(=O)COC(=O)c1ccccc1OCc1ccccc1Cl` here?
Its value is inactive: 10.6%.

With `CCn1c(=O)c(C(=O)NCCc2ccc(OC)c(OC)c2)c(O)c2ccccc21` as the compound, how does the Potency read?
Its Potency is inconclusive [inhibitor, single point].

With `Cc1cc(-c2nnc(SCC(=O)Nc3ccc(F)cc3)n2N)n[nH]1` as the compound, how does the “activity change, negative = inhibition” value read?
The value was inactive: -18.5%.

For `Cc1ccc(N(Cc2cc3cccc(C)c3[nH]c2=O)S(=O)(=O)c2ccccc2)c(C)c1`, which Potency is on record?
The Potency was inconclusive [inhibitor, single point].

With `CN(C)c1ccc(C(=O)N2CCN(c3cc(C(F)(F)F)nc4ccccc34)CC2)cc1` as the compound, how does the Potency read?
Its Potency is inconclusive [inhibitor, partial curve].

Which Potency does the source give for `COc1ccc(/C=N/NC(=O)CCn2c3ccccc3c3ccccc32)cc1O` here?
Its Potency is inconclusive [inhibitor, single point].

For `CC(=O)Nc1ccc(NC(=O)c2ccc(-c3ccc([N+](=O)[O-])cc3)o2)cc1`, which “activity change, negative = inhibition” value is on record?
The value was inactive: -4.83%.

With `COc1ccc(S(=O)(=O)N2CCOCC2)cc1C(=O)N1CCCC1` as the compound, how does the “activity change, negative = inhibition” value read?
The value was inactive: 4.53%.

For `CCOC(=O)c1cnc2c(C)cc(Cl)cc2c1NCCCN1CCOCC1`, which Potency is on record?
Its Potency is inconclusive [inhibitor, full curve, poor fit].

Which Potency does the source give for `COc1ccccc1-c1cc(C(=O)N2CCc3ccccc3C2)c2ccccc2n1` here?
Its Potency is inconclusive [inhibitor, single point].

Which “activity change, negative = inhibition” value does the source give for `CCOC(=O)C(CC)n1cnc2c(nnn2-c2ccccc2)c1=O` (stereo not drawn) here?
Its value is inactive: 0.0777%.

With `Cc1ccc2nc3c(cc(C(=O)NCc4ccco4)c(=N)n3Cc3ccco3)c(=O)n2c1` as the compound, how does the Potency read?
The Potency was active: 1.65 µM.

With `Cc1cc(=O)n2[nH]c(-c3ccccc3)cc2n1` as the compound, how does the “activity change, negative = inhibition” value read?
Its value is inactive: 29.5%.

For `O=[N+]([O-])c1ccc(O)c(C=Nc2cccc3ncccc23)c1`, which Potency is on record?
The Potency was inconclusive [inhibitor, partial curve].

Which Potency does the source give for `COc1ccc(NC(=O)CSc2ncccn2)cc1S(=O)(=O)N1CCCCC1` here?
Its Potency is inconclusive [inhibitor, single point].

Which “activity change, negative = inhibition” value does the source give for `Cc1cc(C)c(S(=O)(=O)N2CCCC(C(=O)N3CCOCC3)C2)c(C)c1` (stereo not drawn) here?
Its value is inactive: 10.8%.

With `Cc1nc(SCc2cccc(F)c2)c2oc3ccccc3c2n1` as the compound, how does the Potency read?
The Potency was active: 10.4 µM.

For `COc1ccc(-c2[nH]c(-c3ccc(SC)cc3)nc2SCC(=O)Nc2nccs2)cc1`, which Potency is on record?
The Potency was inconclusive [inhibitor, partial curve, poor fit].

Which “activity change, negative = inhibition” value does the source give for `CCOC(=O)c1cc(-c2ccccc2)n(CC2CC(c3ccc(OC)cc3)=NO2)n1` (stereo not drawn) here?
Its value is inactive: -17.1%.

Which Potency does the source give for `CCn1c(=O)cc(OCC(=O)Nc2cc(C)ccn2)c2ccccc21` here?
Its Potency is inconclusive [inhibitor, single point].

For `O=C(CCc1ccc(S(=O)(=O)N2CCOCC2)cc1)N/N=C/c1cccc(O)c1`, which Potency is on record?
Its Potency is inconclusive [inhibitor, partial curve].

Which Potency does the source give for `O=C(CNC(=O)c1cccc(F)c1)N/N=C/c1cc(Br)ccc1OCc1ccccc1` here?
Its Potency is inconclusive [inhibitor, partial curve, poor fit].

Which Potency does the source give for `CCc1ccccc1NC(=S)NCCSc1ccc(Cl)cc1` here?
The Potency was inconclusive [inhibitor, partial curve, poor fit].

For `COc1ccccc1Nc1nc(N)nc(CN2CCC(C)CC2)n1`, which “activity change, negative = inhibition” value is on record?
The value was inactive: -24.6%.

For `C#CCNC(=O)C1=C[C@H](c2csc3ccccc23)C[C@H](OCc2ccc(CO)cc2)O1`, which Potency is on record?
The Potency was inconclusive [inhibitor, partial curve, poor fit].

With `CCCOc1ccc(C2C(C(=O)c3ccc(C)o3)=C(O)C(=O)N2Cc2ccco2)cc1` (stereo not drawn) as the compound, how does the Potency read?
Its Potency is inconclusive [inhibitor, partial curve, poor fit].

With `C[n+]1ccccc1/C=C/c1ccc([N+](=O)[O-])cc1` as the compound, how does the Potency read?
Its Potency is active: 1.31 µM.

With `O=C1N=C(N2CCN(c3cccc4ccccc34)CC2)S/C1=C/c1cccs1` as the compound, how does the Potency read?
The Potency was active: 8.28 µM.

For `Cc1ccc(C)c(S(=O)(=O)Nc2cc(SCC(=O)O)c(O)c3ccccc23)c1`, which Potency is on record?
The Potency was inconclusive [inhibitor, single point].

For `CCCCCCc1nc(C(N)=O)c2[nH]c(=O)n(-c3ccc(OCC)cc3)c2n1`, which “activity change, negative = inhibition” value is on record?
The value was inactive: -17.5%.

For `Cc1cccc(NC(=O)c2cc(S(=O)(=O)N3CCc4ccccc43)cn2C)c1C`, which Potency is on record?
Its Potency is inconclusive [inhibitor, single point].

Which “activity change, negative = inhibition” value does the source give for `CC1CCC(NC(=O)c2ccc3snnc3c2)CC1` (stereo not drawn) here?
The value was inactive: 43.6%.

Which “activity change, negative = inhibition” value does the source give for `Cc1nc(Cl)sc1C(=O)Nc1ccc2ccccc2c1` here?
The value was inactive: 187%.

Which Potency does the source give for `Cn1c(=O)c2c(nc(N/N=C/c3cccs3)n2Cc2ccc(Br)cc2)n(C)c1=O` here?
The Potency was inconclusive [inhibitor, partial curve].

For `CC(C)c1ccc(N(C(=O)CNC(=O)c2ccco2)C(C(=O)NC2CCCC2)c2ccncc2)cc1` (stereo not drawn), which Potency is on record?
Its Potency is inconclusive [inhibitor, partial curve, poor fit].

With `CCc1ccccc1NC(=S)NC1CC2CCCC(C1)N2Cc1cccs1` (stereo not drawn) as the compound, how does the Potency read?
The Potency was active: 8.28 µM.

For `CSc1nsc(/C=C/Nc2cccc(Cl)c2)c1C#N`, which Potency is on record?
Its Potency is inconclusive [inhibitor, single point].

Which “activity change, negative = inhibition” value does the source give for `CCCC(=O)Nc1ccc2c(c1)nc1n2CCOC1` here?
The value was inactive: 11.4%.

With `CC1CC(C)CN(C(=O)COC(=O)c2c[nH]c3ccccc23)C1` (stereo not drawn) as the compound, how does the “activity change, negative = inhibition” value read?
Its value is inactive: 7.86%.

With `CS(=O)(=O)N1CCn2c1nc1ccccc12` as the compound, how does the “activity change, negative = inhibition” value read?
Its value is inactive: 0%.

With `O=C1OC(/C(=C\NCc2ccccc2)[N+](=O)[O-])c2ccccc21` (stereo not drawn) as the compound, how does the Potency read?
Its Potency is inconclusive [inhibitor, single point].

With `Cc1ccc(S(=O)(=O)NN2C(=O)c3ccccc3NC2c2cccc(O)c2)cc1` (stereo not drawn) as the compound, how does the “activity change, negative = inhibition” value read?
The value was inactive: -17%.
